± gives the standard deviation. This is a selection; strong and weak results do not stand in their true shares.
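Also: 1 nM active piRISC with 0.1 nM target library at 33 °C single turnover.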

The test system of one test is MIWI (PIWIL1) piRISC loaded with L1MC piRNA (30 nt). The test can be described thus: pre-steady-state target cleavage rate (min^-1); MIWI and MILI are mouse PIWI proteins and EfPiwi is from a freshwater sponge; tags in brackets are library labels; higher = faster piRNA-guided slicing of the target. Particulars: guide: L1MC piRNA 5'p-UAACUAAAUACUAUGCAAGCUGUAGGUCCU; auxiliary factor: 500 nM mouse GTSF1. An outline of the steps:
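In this Cleave-'n-Seq assay, uncleaved targets were sequenced and normalised to depth and to weakly complementary targets. They came from a transcribed, DNA-blocked target RNA library […] mixed with 1 nM active affinity-purified piRISC carrying one synthetic guide, with or without 500 nM GTSF1 partner protein, in HEPES–potassium acetate buffer at 33 °C for 0–8 or 0–960 min. After three trials were pooled and k3 was capped at 0.0001 min^-1, the pre-steady-state cleavage rate was obtained from a burst-and-steady-state fit.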
As for UCCACCUACAGCUUGCGUAGUAUUUAGUUA, the “pre-steady-state target cleavage rate” value came to 1.26 ± 0.049.
Still for that read-out and setting: with AGCACCUACUGCUUGCAUAGUAUUUAGUUA the figure was 0.881 ± 0.076; with UCCUCCUACAGCUUGCAUAGUAUUUAGUCUA, 0.231 ± 0.044; with UCCUGGAUGAGCUGUGCAUAGUAUUUAGUUA, 0.597 ± 0.035.
On the same count and under the same terms, with AGCACCAACAGCUUGCAUAGUAUUUAGUUA the figure was 1.03 ± 0.058; with “UCCUGGAUGUCCUUGCAUAGUAUUUAGUUG [g2:g19:cont:t1G]”, 0.0673 ± 0.0083; with UCCUGGUACAGCUUUGCAUAGUAUUUAGUUA, 0.505 ± 0.043.
The same measure, in the same setting: with UCCUGGAUGUCGAACGUUAGUUAUUAGUUA the figure was less than 0.0001; with UCCUGGAAUCAGCUUGCAUAGUAUUUAGUUA, 1.1 ± 0.055; with AGGACCUACAGCAUGGAUAGUAUUUAGUUA, 1.57 ± 0.086.
As to UCCACCUACAUGCUUGCAUAGUAUUUAGUUA, the “pre-steady-state target cleavage rate” value was found to be 0.347 ± 0.034.
For UCGACCUAGAGCUUGGAUAGUAUUUAGUUA, the “pre-steady-state target cleavage rate” value stood at 1.25 ± 0.042.
Still for that read-out and setting: with UCCACCUACAGCUUGCAUAGUUUUAAGUUA the figure was 0.196 ± 0.021; with UCCUGGUACAGCAUUGCAUAGUAUUUAGUUA, 0.494 ± 0.057; with AGGACCUACACCUUGCAUAGUAUUUUCAAA, 0.353 ± 0.042.
Still for that read-out and setting: with UCCUGGAAGAGCUUGCAUAGUAUAUAGUUA the figure was 0.446 ± 0.037; with AGGACCUACAGCUUGGAUAGUAUUAAGUUA, 0.722 ± 0.072; with UCCUGCUACAGCUUGAAUAGUAUUUAGUUA, 0.765 ± 0.041.
On to UCCUCCUACAGCUUGCAAAGUAUUAAGUUA, for which the “pre-steady-state target cleavage rate” value was 0.361 ± 0.028.
Still for that read-out and setting: for UCCUGGAACAGCUUGCAAAGUAUUUUGUUA the value was 0.471 ± 0.05; for AGGACCUACAGCUUGCAUAGUAUUAACAAA, 0.409 ± 0.061.
The same measure, in the same setting: for AGGACCUACAGCUUGACAUAGUAUUUAGUUA the value was 1.07 ± 0.093; for UGGACCUACAGCUUGCAAAGUAUUUACUUA, 0.379 ± 0.03; for UCCACCUAGAGCUUGCAUAGUAUUUUGUUA, 1.27 ± 0.18.
Same read-out and setting: for UCCACGUACAGCUUGCAUAGUAUUUUGUUA the value was 0.594 ± 0.033.
In the case of UCCUGGAUCAGCUUGCAUAGUACUUUAGUUA, the “pre-steady-state target cleavage rate” value was determined as 0.331 ± 0.031.
Consider UCCUGGUACAGCAUGCAAAGUAUUUAGUUA, for which the “pre-steady-state target cleavage rate” value came out at 0.746 ± 0.034.
Same read-out and setting: for UCCACCUACUCCUUGCAUAGUAUUUAGUAA the value was 0.38 ± 0.036; for UCCACCUACAGCUUGCAAAGUAAUUAGUUA, 0.45 ± 0.031; for UCCACCAACAGCUUGCUUAGUAUUUAGUUA, 1.31 ± 0.061.
Same read-out and setting: for UCCACCUAGUGCUUGCAUAGUAUUUAGUUA the value was 0.296 ± 0.035.
Same read-out and setting: with UCCUGGAUGUGCUUAGCAUAGUAUUUAGUUA the figure was 0.129 ± 0.013; with UCGACCUACAGCUUGCAUAGUAUUUCAGUUA, 0.698 ± 0.072; with UGGACCUACUCCUUGCAUAGUAUUUAGUAA, 0.329 ± 0.033.
For the sequence UCCACCUAACAGCUUGCAUAGUAUUUAGUUA, the “pre-steady-state target cleavage rate” value is 0.616 ± 0.035.
Still for that read-out and setting: for UGGAGCUACAGCUUGCAUAGUAUUUACUUA the value was 0.319 ± 0.033; for AGGACCUACAGCUUGCUUAGUAUUAAGUUA, 0.559 ± 0.053.
On the same count and under the same terms, for AGGACCUACAGCUUGCAAUGUAUUUAGUAA the value was 0.332 ± 0.028; for UCCACCUACAGCUUGCAUAGUUUUUAGUAA, 0.216 ± 0.036; for UCCACCUACAGCUUGCAUAGUAUUUAGAUA, 0.501 ± 0.07.

Still in this test, the particulars now being: guide: L1MC piRNA 5'p-UAACUAAAUACUAUGCAAGCUGUAGGUCCU; auxiliary factor: none (no GTSF1).
Regarding UCCACCUACAGCUUGCGUAGUAUUUAGUUA, the “pre-steady-state target cleavage rate” value stood at 0.0423 ± 0.0094.
For AGCACCUACUGCUUGCAUAGUAUUUAGUUA, the “pre-steady-state target cleavage rate” value amounted to 0.0651 ± 0.013.
The same measure, in the same setting: with UCCUCCUACAGCUUGCAUAGUAUUUAGUCUA the figure was 0.0115 ± 0.0035; with UCCUGGAUGAGCUGUGCAUAGUAUUUAGUUA, 0.0153 ± 0.0046.
In the case of AGCACCAACAGCUUGCAUAGUAUUUAGUUA, the “pre-steady-state target cleavage rate” value amounted to 0.0664 ± 0.011.
On the same count and under the same terms, for “UCCUGGAUGUCCUUGCAUAGUAUUUAGUUG [g2:g19:cont:t1G]” the value was 0.00819 ± 0.0027; for UCCUGGUACAGCUUUGCAUAGUAUUUAGUUA, 0.0154 ± 0.0037; for UCCUGGAUGUCGAACGUUAGUUAUUAGUUA, less than 0.0001.
Still for that read-out and setting: for UCCUGGAAUCAGCUUGCAUAGUAUUUAGUUA the value was 0.0857 ± 0.019.
Still for that read-out and setting: with AGGACCUACAGCAUGGAUAGUAUUUAGUUA the figure was 0.0502 ± 0.0089; with UCCACCUACAUGCUUGCAUAGUAUUUAGUUA, 0.0318 ± 0.0049; with UCGACCUAGAGCUUGGAUAGUAUUUAGUUA, 0.0475 ± 0.0077.
UCCACCUACAGCUUGCAUAGUUUUAAGUUA: the “pre-steady-state target cleavage rate” value is 0.00782 ± 0.0019.
On the same count and under the same terms, for UCCUGGUACAGCAUUGCAUAGUAUUUAGUUA the value was 0.0223 ± 0.0052; for AGGACCUACACCUUGCAUAGUAUUUUCAAA, 0.00849 ± 0.0032.
Same read-out and setting: with UCCUGGAAGAGCUUGCAUAGUAUAUAGUUA the figure was 0.0148 ± 0.0034.
The same measure, in the same setting: for AGGACCUACAGCUUGGAUAGUAUUAAGUUA the value was 0.0226 ± 0.004; for UCCUGCUACAGCUUGAAUAGUAUUUAGUUA, 0.024 ± 0.0046.
UCCUCCUACAGCUUGCAAAGUAUUAAGUUA: the “pre-steady-state target cleavage rate” value was found to be 0.00876 ± 0.0021.
Still for that read-out and setting: for UCCUGGAACAGCUUGCAAAGUAUUUUGUUA the value was 0.0188 ± 0.0066; for AGGACCUACAGCUUGCAUAGUAUUAACAAA, 0.00389 ± 0.0032.
Still for that read-out and setting: with AGGACCUACAGCUUGACAUAGUAUUUAGUUA the figure was 0.0105 ± 0.0047; with UGGACCUACAGCUUGCAAAGUAUUUACUUA, 0.0205 ± 0.0043.
For the sequence UCCACCUAGAGCUUGCAUAGUAUUUUGUUA, the “pre-steady-state target cleavage rate” value is 0.0301 ± 0.0047.
On the same count and under the same terms, for UCCACGUACAGCUUGCAUAGUAUUUUGUUA the value was 0.0354 ± 0.0053; for UCCUGGAUCAGCUUGCAUAGUACUUUAGUUA, 0.00773 ± 0.0033; for UCCUGGUACAGCAUGCAAAGUAUUUAGUUA, 0.0193 ± 0.0046.
Still for that read-out and setting: with UCCACCUACUCCUUGCAUAGUAUUUAGUAA the figure was 0.0152 ± 0.0026.
On the same count and under the same terms, for UCCACCUACAGCUUGCAAAGUAAUUAGUUA the value was 0.00911 ± 0.0032; for UCCACCAACAGCUUGCUUAGUAUUUAGUUA, 0.026 ± 0.0061; for UCCACCUAGUGCUUGCAUAGUAUUUAGUUA, 0.0239 ± 0.0033.
As for UCCUGGAUGUGCUUAGCAUAGUAUUUAGUUA, the “pre-steady-state target cleavage rate” value turned out to be 0.00909 ± 0.0031.
On the same count and under the same terms, for UCGACCUACAGCUUGCAUAGUAUUUCAGUUA the value was 0.0311 ± 0.0095.
Take UGGACCUACUCCUUGCAUAGUAUUUAGUAA: the “pre-steady-state target cleavage rate” value worked out at 0.0227 ± 0.0056.
On the same count and under the same terms, with UCCACCUAACAGCUUGCAUAGUAUUUAGUUA the figure was 0.0394 ± 0.0065; with UGGAGCUACAGCUUGCAUAGUAUUUACUUA, 0.0321 ± 0.0047; with AGGACCUACAGCUUGCUUAGUAUUAAGUUA, 0.0143 ± 0.0034.
On the same count and under the same terms, for AGGACCUACAGCUUGCAAUGUAUUUAGUAA the value was 0.00409 ± 0.0026; for UCCACCUACAGCUUGCAUAGUUUUUAGUAA, 0.00954 ± 0.0022.
Still for that read-out and setting: for UCCACCUACAGCUUGCAUAGUAUUUAGAUA the value was 0.0222 ± 0.0082.

The values above are taken from the supplement of paper PMC10338343.
